Consider 42 sequences from PMC7819943, “Rice protein-binding microarrays: a tool to detect cis-acting elements near promoter regions in rice”.

Some of the results follow.

The target in this experiment is T1, OsWOX13 (Oryza sativa, UniProt Q5QMM3 1-267).
T1 sequence: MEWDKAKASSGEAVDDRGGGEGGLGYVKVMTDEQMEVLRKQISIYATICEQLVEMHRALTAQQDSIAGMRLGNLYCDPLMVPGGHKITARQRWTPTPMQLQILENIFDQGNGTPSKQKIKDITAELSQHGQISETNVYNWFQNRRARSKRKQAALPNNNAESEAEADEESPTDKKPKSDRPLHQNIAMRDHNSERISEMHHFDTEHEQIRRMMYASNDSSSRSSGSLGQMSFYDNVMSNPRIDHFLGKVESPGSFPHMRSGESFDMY
Put plainly: protein-binding microarray (RPBM); PBS, 2% BSA, 51.3 ng/ul salmon testes DNA, 50 uM zinc acetate, 200 nM TF, 25 C, 1 h; high values mean tight binding. The settings on record: protein: recombinant; tags: N-terminal polyhistidine and DsRed monomer fusion (pET32a); label: CyDye5-dUTP incorporated in the synthesized complementary strand; 3' TTTTT single-stranded linker to array surface; dsDNA, one strand shown. Summed up: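 An Axon 4000B scanner gave the binding signal as per-feature fluorescence intensity in arbitrary units. This followed washing of a custom Agilent array that had been incubated for 1 h at 25 °C with 200 nM protein in PBS, 2% BSA, salmon testes DNA and 50 µM zinc acetate. The proteins were transcription factors fused at the N-terminus to polyhistidine and DsRed, expressed in E. coli BL21-CodonPlus and purified on Ni–NTA.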
In the case of “TTACCAAACTGGAAATTTCGTGGTGTTACAAAATAGGACACGGAGTCACCTAGTGCAG”, the binding signal was 3600 fluorescence intensity (a.u.). Take “TATAAACAATTCATTAACCATCAATCTTCAATTCTGAATCCGGAGTCACCTAGTGCAG”: the binding signal is 8980 fluorescence intensity (a.u.). In the case of “CCAATTCTTCTGATAAATTGGTTGCTCTCAAGGCCTATCGCGGAGTCACCTAGTGCAG”, the binding signal was 4480 fluorescence intensity (a.u.). The same measure for “ACCCGATTTTGTGATTAATGGATGAAAATTAGAGAGAGACCGGAGTCACCTAGTGCAG”: 18800 fluorescence intensity (a.u.). Next, “ACCAAAATTGAAATTTTGATTAAAATTAAAACAATGTGACCGGAGTCACCTAGTGCAG”: 27400 fluorescence intensity (a.u.); “CAGAGTGTATTTGATTTGTGATCATCCTTTATGTGTATCACGGAGTCACCTAGTGCAG”: 4440 fluorescence intensity (a.u.); “TAAGATTAGTGAAAGAATTAGAACCTATGTTACATAGTTCCGGAGTCACCTAGTGCAG”: 3590 fluorescence intensity (a.u.). The same measure for “TTGATTAGCTTGTTCATGTGACTGCGACAAAGATGTTTCGCGGAGTCACCTAGTGCAG”: 35700 fluorescence intensity (a.u.); for “CACGCCGCTGATCAATCAGCCGCTCGTGTTAGCACGGGCCCGGAGTCACCTAGTGCAG”: 4040 fluorescence intensity (a.u.). Consider “AATACTAAATTAGTTTTATTAAATTTAACATTAAATATATCGGAGTCACCTAGTGCAG”, for which the binding signal was 4010 fluorescence intensity (a.u.).

For “AGTTGATGTGTCTGTTAAGAGCGATGTGCACATGGATTTTCGGAGTCACCTAGTGCAG”, the binding signal was 5630 fluorescence intensity (a.u.). Next, “ACTACTAACTCCAAATCATTTATAACCAATGTAATAGTCACGGAGTCACCTAGTGCAG”: 4370 fluorescence intensity (a.u.); “ACAACTAAATTGCTCATAAGATCGCTTAGAAACGAACTCGCGGAGTCACCTAGTGCAG”: 5340 fluorescence intensity (a.u.); “TAACACCCCTAATTATTTCTATACAGTTAACGTTACTACGCGGAGTCACCTAGTGCAG”: 5550 fluorescence intensity (a.u.). The same measure for “ATTTGAATAATTAGGGAGTCTATGAACAGAAACATAGACCCGGAGTCACCTAGTGCAG”: 6000 fluorescence intensity (a.u.).

For the sequence “ATGATTGATTTGGGTAACATACCAAACACCAAACAGTTCACGGAGTCACCTAGTGCAG”, the binding signal is 56600 fluorescence intensity (a.u.). Consider “TCTTGTTAGATTGGCTGATACCCCAGGCATCAAAAGAGGACGGAGTCACCTAGTGCAG”, for which the binding signal was 18500 fluorescence intensity (a.u.). The same measure for “CAATAAAATTAGGGTAATATGTTCATTTGTTAGAGAAGGGCGGAGTCACCTAGTGCAG”: 5340 fluorescence intensity (a.u.). The same measure for “ACATTAAATAACTTATATAACATATTTGCATATAAACAGTCGGAGTCACCTAGTGCAG”: 4200 fluorescence intensity (a.u.); for “GTTGACGGTGATGATGACGATGATGATGAAGATGAGGACGCGGAGTCACCTAGTGCAG”: 18200 fluorescence intensity (a.u.); for “TCAGAAACAGTAATTAAACATGCATAATACTATTTACTACCGGAGTCACCTAGTGCAG”: 6300 fluorescence intensity (a.u.). Next, “TTAGATTGTCATTGGGCACCGGGCCGTAGCACATTGATAACGGAGTCACCTAGTGCAG”: 7590 fluorescence intensity (a.u.); “CTCTCTCTCTCACTAGCTAATTAGCTGCTACTACATCTTCCGGAGTCACCTAGTGCAG”: 8290 fluorescence intensity (a.u.). In the case of “ACGCTGTAAATTACTCGTACTTATATATTAATAAAAGTTTCGGAGTCACCTAGTGCAG”, the binding signal was 3290 fluorescence intensity (a.u.).

“TATGAATGAGCTATTAGATTGGCTATAGGAGCAGGTACAACGGAGTCACCTAGTGCAG”: the binding signal was 11300 fluorescence intensity (a.u.). In the case of “TGGTGACTTTGTCAATCTTCAGGATTTACCGGCTCAGTCTCGGAGTCACCTAGTGCAG”, the binding signal was 9900 fluorescence intensity (a.u.). On to “TACACCTTTGACAGACAACAAAGCATTGAATCTTCTATGCCGGAGTCACCTAGTGCAG”, for which the binding signal was 5260 fluorescence intensity (a.u.). The same measure for “TATATATATATATATATATATATATATTATGTATATATGTCGGAGTCACCTAGTGCAG”: 10100 fluorescence intensity (a.u.); for “AGTATGAATCGATTTTGACAGGAACCGACGTCGTTAGCAGCGGAGTCACCTAGTGCAG”: 3550 fluorescence intensity (a.u.); for “GATGATTGGGAGTGCGTTAGTTGCAGATGATTGGGTCAGCCGGAGTCACCTAGTGCAG”: 32700 fluorescence intensity (a.u.). The same measure for “ATCTAGAATTAGATGTGACATATCGTAGTACTATGAACCTCGGAGTCACCTAGTGCAG”: 4830 fluorescence intensity (a.u.). The same measure for “GCAAATAATTTAGAAATATTTTAAACAAAACTCGAATAAACGGAGTCACCTAGTGCAG”: 5840 fluorescence intensity (a.u.); for “CTGATAATGGACATTTCTTAATTCGAACAATAATGATATCCGGAGTCACCTAGTGCAG”: 14500 fluorescence intensity (a.u.).

In the case of “AAAATGGGATTTACGTAAATAAATTATATACAACAGGGGCCGGAGTCACCTAGTGCAG”, the binding signal was 8370 fluorescence intensity (a.u.). The same measure for “GTGGATAGATTTTATAATCAAGGATTATGAACAACTGAATCGGAGTCACCTAGTGCAG”: 18100 fluorescence intensity (a.u.); for “TCAACTGATTTTCTTTCTTTTACAATCAACTGATTTTCTTCGGAGTCACCTAGTGCAG”: 10100 fluorescence intensity (a.u.). Turning to “TTTAAACTGTTATTTGCATGTTACTCAAATAGTTATGAAACGGAGTCACCTAGTGCAG”, the binding signal is 5480 fluorescence intensity (a.u.). Next, “AAAATAATTTTATTCGGGAATGGAGAGAGTACTCGCGATCCGGAGTCACCTAGTGCAG”: 5060 fluorescence intensity (a.u.); “ATTATTCCATCAATTAATTCACCAGACCGCATTCTCTTTTCGGAGTCACCTAGTGCAG”: 14500 fluorescence intensity (a.u.); “ACTAATTTTGTGATAACTATTCGAGGCTACAAACGAAAGACGGAGTCACCTAGTGCAG”: 14100 fluorescence intensity (a.u.).

On to “TTAGTATTAACAAGGGTGATTGTAGATCAACATAAAGGTTCGGAGTCACCTAGTGCAG”, for which the binding signal is 3480 fluorescence intensity (a.u.). Take “AGAGATGGGTGAAGGGATTGACTGACATGTGGGCCCCACCCGGAGTCACCTAGTGCAG”: the binding signal is 6660 fluorescence intensity (a.u.).
